Assay results from the supplement of paper PMC8728848.
Some of the results follow.

Key:
Assay in all cases: glycan array binding signal (z-score within array); higher = stronger binding
Conditions in all cases: glycan notation: IUPAC condensed, linker removed
[1] = target: Gal(b1-3)GlcNAc(b1-6)[Gal(b1-3)]GalNAc
How it was run: (§1)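 The Consortium for Functional Glycomics database supplied 3228 glycan arrays, of which those lacking an available protein sequence were dropped. The binding signal, a within-array Z-score, was averaged across arrays of the same protein sequence and across linkers. Negative scores can be read as non-binding.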

[2] = target: Gal(b1-3)GlcNAc6S
How it was run: as §1

[3] = target: Gal(b1-3)[Fuc(a1-4)]GlcNAc
How it was run: as §1

[4] = target: Gal(b1-3)[Fuc(a1-4)]GlcNAc(b1-2)Man
How it was run: as §1

[5] = target: Gal(b1-3)[Fuc(a1-4)]GlcNAc(b1-2)Man(a1-3)[Gal(b1-3)[Fuc(a1-4)]GlcNAc(b1-2)Man(a1-6)]Man(b1-4)GlcNAc(b1-4)[Fuc(a1-6)]GlcNAc
How it was run: as §1

[6] = target: Gal(b1-3)[Fuc(a1-4)]GlcNAc(b1-3)Gal(b1-3)[Fuc(a1-4)]GlcNAc
How it was run: as §1

[7] = target: Gal(b1-3)[Fuc(a1-4)]GlcNAc(b1-3)Gal(b1-4)[Fuc(a1-3)]GlcNAc
How it was run: as §1

[8] = target: Gal(b1-3)[Fuc(a1-4)]GlcNAc(b1-6)GalNAc
How it was run: as §1

[9] = target: Gal(b1-3)[GlcNAc(b1-6)]GalNAc
How it was run: as §1

[10] = target: Gal(b1-3)[Neu5Ac(a2-6)]GalNAc
How it was run: as §1

[11] = target: Gal(b1-3)[Neu5Ac(a2-6)]GlcNAc(b1-4)Gal(b1-4)Glc
How it was run: as §1

[12] = target: Gal(b1-3)[Neu5Ac(b2-6)]GalNAc
How it was run: as §1

[13] = target: Gal(b1-4)Gal
How it was run: as §1

[14] = target: Gal(b1-4)GalNAc(a1-3)[Fuc(a1-2)]Gal(b1-4)GlcNAc
How it was run: as §1

[15] = target: Gal(b1-4)GalNAc(b1-3)[Fuc(a1-2)]Gal(b1-4)GlcNAc
How it was run: as §1

[16] = target: Gal(b1-4)Glc
How it was run: as §1

[17] = target: Gal(b1-4)Glc6S
How it was run: as §1

[18] = target: Gal(b1-4)GlcNAc
How it was run: as §1

[19] = target: Gal(b1-4)GlcNAc(a1-6)Gal(b1-4)GlcNAc
How it was run: as §1

[20] = target: Gal(b1-4)GlcNAc(b1-2)Man
How it was run: as §1

[21] = target: Gal(b1-4)GlcNAc(b1-2)Man(a1-3)Man(b1-4)GlcNAc(b1-4)GlcNAc
How it was run: as §1

[22] = target: Gal(b1-4)GlcNAc(b1-2)Man(a1-3)[Gal(b1-4)GlcNAc(b1-2)Man(a1-6)]Man(b1-4)GlcNAc(b1-4)GlcNAc
How it was run: as §1

[23] = target: Gal(b1-4)GlcNAc(b1-2)Man(a1-3)[Gal(b1-4)GlcNAc(b1-2)Man(a1-6)]Man(b1-4)GlcNAc(b1-4)[Fuc(a1-6)]GlcNAc
How it was run: as §1

[24] = target: Gal(b1-4)GlcNAc(b1-2)Man(a1-3)[Gal(b1-4)GlcNAc(b1-2)Man(a1-6)][Gal(b1-4)GlcNAc(b1-4)]Man(b1-4)GlcNAc(b1-4)[Fuc(a1-6)]GlcNAc
How it was run: as §1

[25] = target: Gal(b1-4)GlcNAc(b1-2)Man(a1-3)[Gal(b1-4)GlcNAc(b1-2)Man(a1-6)][GlcNAc(b1-4)]Man(b1-4)GlcNAc(b1-4)[Fuc(a1-6)]GlcNAc
How it was run: as §1

[26] = target: Gal(b1-4)GlcNAc(b1-2)Man(a1-3)[GlcNAc(b1-2)Man(a1-6)]Man(b1-4)GlcNAc(b1-4)GlcNAc
How it was run: as §1

[27] = target: Gal(b1-4)GlcNAc(b1-2)Man(a1-3)[GlcNAc(b1-4)][Gal(b1-4)GlcNAc(b1-2)Man(a1-6)]Man(b1-4)GlcNAc(b1-4)GlcNAc
How it was run: as §1

[28] = target: Gal(b1-4)GlcNAc(b1-2)Man(a1-3)[Man(a1-6)]Man(b1-4)GlcNAc(b1-4)GlcNAc
How it was run: as §1

[29] = target: Gal(b1-4)GlcNAc(b1-2)Man(a1-6)Man(b1-4)GlcNAc(b1-4)GlcNAc
How it was run: as §1

[30] = target: Gal(b1-4)GlcNAc(b1-2)Man(a1-6)[GlcNAc(b1-2)Man(a1-3)]Man(b1-4)GlcNAc(b1-4)GlcNAc
How it was run: as §1

[31] = target: Gal(b1-4)GlcNAc(b1-2)Man(a1-6)[Man(a1-3)]Man(b1-4)GlcNAc(b1-4)GlcNAc
How it was run: as §1

[32] = target: Gal(b1-4)GlcNAc(b1-2)[Gal(b1-4)GlcNAc(b1-4)]Man(a1-3)[Gal(b1-4)GlcNAc(b1-2)Man(a1-6)]Man(b1-4)GlcNAc(b1-4)GlcNAc
How it was run: as §1

[33] = target: Gal(b1-4)GlcNAc(b1-2)[Gal(b1-4)GlcNAc(b1-4)]Man(a1-3)[Gal(b1-4)GlcNAc(b1-2)[Gal(b1-4)GlcNAc(b1-6)]Man(a1-6)]Man(b1-4)GlcNAc(b1-4)GlcNAc
How it was run: as §1

[34] = target: Gal(b1-4)GlcNAc(b1-2)[Gal(b1-4)GlcNAc(b1-4)]Man(a1-3)[GlcNAc(b1-4)][Gal(b1-4)GlcNAc(b1-2)Man(a1-6)]Man(b1-4)GlcNAc(b1-4)GlcNAc
How it was run: as §1

[35] = target: Gal(b1-4)GlcNAc(b1-2)[Gal(b1-4)GlcNAc(b1-4)]Man(a1-3)[GlcNAc(b1-4)][Gal(b1-4)GlcNAc(b1-2)[Gal(b1-4)GlcNAc(b1-6)]Man(a1-6)]Man(b1-4)GlcNAc(b1-4)GlcNAc
How it was run: as §1

[36] = target: Gal(b1-4)GlcNAc(b1-2)[Gal(b1-4)GlcNAc(b1-6)]Man(a1-6)[Gal(b1-4)GlcNAc(b1-2)Man(a1-3)]Man(b1-4)GlcNAc(b1-4)GlcNAc
How it was run: as §1

[37] = target: Gal(b1-4)GlcNAc(b1-2)[Gal(b1-4)GlcNAc(b1-6)]Man(a1-6)[Gal(b1-4)GlcNAc(b1-2)Man(a1-3)]Man(b1-4)GlcNAc(b1-4)[Fuc(a1-6)]GlcNAc
How it was run: as §1

[38] = target: Gal(b1-4)GlcNAc(b1-2)[Gal(b1-4)GlcNAc(b1-6)]Man(a1-6)[GlcNAc(b1-4)][Gal(b1-4)GlcNAc(b1-2)Man(a1-3)]Man(b1-4)GlcNAc(b1-4)GlcNAc
How it was run: as §1

[39] = target: Gal(b1-4)GlcNAc(b1-2)[Gal(b1-4)GlcNAc(b1-6)]Man(a1-6)[GlcNAc(b1-4)][Gal(b1-4)GlcNAc(b1-2)[Gal(b1-4)GlcNAc(b1-4)]Man(a1-3)]Man(b1-4)GlcNAc(b1-4)[Fuc(a1-6)]GlcNAc
How it was run: as §1

[40] = target: Gal(b1-4)GlcNAc(b1-3)Gal(b1-3)GalNAc
How it was run: as §1

[41] = target: Gal(b1-4)GlcNAc(b1-3)Gal(b1-3)GlcNAc
How it was run: as §1

[42] = target: Gal(b1-4)GlcNAc(b1-3)Gal(b1-4)Glc
How it was run: as §1

[43] = target: Gal(b1-4)GlcNAc(b1-3)Gal(b1-4)GlcNAc
How it was run: as §1

[44] = target: Gal(b1-4)GlcNAc(b1-3)Gal(b1-4)GlcNAc(b1-2)Man(a1-3)[Gal(b1-4)GlcNAc(b1-3)Gal(b1-4)GlcNAc(b1-2)Man(a1-6)]Man(b1-4)GlcNAc(b1-4)GlcNAc
How it was run: as §1

[45] = target: Gal(b1-4)GlcNAc(b1-3)Gal(b1-4)GlcNAc(b1-2)Man(a1-3)[Gal(b1-4)GlcNAc(b1-3)Gal(b1-4)GlcNAc(b1-2)Man(a1-6)]Man(b1-4)GlcNAc(b1-4)[Fuc(a1-6)]GlcNAc
How it was run: as §1

B1: TIM1 (protein)
chain: ADGIQSVKVGGEAGPSVTLPCHYSGAVTSMCWNRGSCSLFTCQNGIVWTNGTHVTYRKDTRYKLLGDLSRRDVSLTIENTAVSDSGVYCCRVEHRGWFNDMKITVSLEIVPPHHHHHH
[1]
  glycan array binding signal (z-score): -0.192
[2]
  glycan array binding signal (z-score): -0.212
[3]
  glycan array binding signal (z-score): -0.25
[4]
  glycan array binding signal (z-score): 0
[5]
  glycan array binding signal (z-score): -0.173
[6]
  glycan array binding signal (z-score): -0.256
[7]
  glycan array binding signal (z-score): -0.269
[8]
  glycan array binding signal (z-score): 0.158
[9]
  glycan array binding signal (z-score): -0.176
[10]
  glycan array binding signal (z-score): -0.188
[11]
  glycan array binding signal (z-score): -0.186
[12]
  glycan array binding signal (z-score): -0.248
[13]
  glycan array binding signal (z-score): -0.124
[14]
  glycan array binding signal (z-score): -0.212
[15]
  glycan array binding signal (z-score): -0.268
[16]
  glycan array binding signal (z-score): -0.175
[17]
  glycan array binding signal (z-score): -0.043
[18]
  glycan array binding signal (z-score): -0.241
[19]
  glycan array binding signal (z-score): -0.255
[20]
  glycan array binding signal (z-score): 0.009
[21]
  glycan array binding signal (z-score): -0.127
[22]
  glycan array binding signal (z-score): -0.246
[23]
  glycan array binding signal (z-score): 0.049
[24]
  glycan array binding signal (z-score): -0.272
[25]
  glycan array binding signal (z-score): -0.27
[26]
  glycan array binding signal (z-score): -0.183
[27]
  glycan array binding signal (z-score): -0.263
[28]
  glycan array binding signal (z-score): -0.176
[29]
  glycan array binding signal (z-score): -0.153
[30]
  glycan array binding signal (z-score): -0.166
[31]
  glycan array binding signal (z-score): -0.091
[32]
  glycan array binding signal (z-score): -0.059
[33]
  glycan array binding signal (z-score): -0.274
[34]
  glycan array binding signal (z-score): -0.279
[35]
  glycan array binding signal (z-score): -0.269
[36]
  glycan array binding signal (z-score): -0.294
[37]
  glycan array binding signal (z-score): -0.081
[38]
  glycan array binding signal (z-score): -0.257
[39]
  glycan array binding signal (z-score): -0.205
[40]
  glycan array binding signal (z-score): -0.205
[41]
  glycan array binding signal (z-score): -0.197
[42]
  glycan array binding signal (z-score): -0.209
[43]
  glycan array binding signal (z-score): -0.276
[44]
  glycan array binding signal (z-score): 7.65
[45]
  glycan array binding signal (z-score): -0.023
